# PMC4336329 (PLoS ONE, 2015)
# Screen size: about 310,000 compounds; about 14,000 (4.5%) showed an effect of 50% or more. Effects have a minus sign here. This is one part of the list.
# Molecular target: human ether-à-go-go-related gene (hERG) potassium channel (human, UniProt Q12809)
# Experiment: primary screen, population patch clamp on CHO cells stably expressing hERG
# 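Note: peak tail current of the secondary pulse compared with the same well before compound.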
# Sequence of human ether-à-go-go-related gene (hERG) potassium channel (Q12809 whole entry, looked up): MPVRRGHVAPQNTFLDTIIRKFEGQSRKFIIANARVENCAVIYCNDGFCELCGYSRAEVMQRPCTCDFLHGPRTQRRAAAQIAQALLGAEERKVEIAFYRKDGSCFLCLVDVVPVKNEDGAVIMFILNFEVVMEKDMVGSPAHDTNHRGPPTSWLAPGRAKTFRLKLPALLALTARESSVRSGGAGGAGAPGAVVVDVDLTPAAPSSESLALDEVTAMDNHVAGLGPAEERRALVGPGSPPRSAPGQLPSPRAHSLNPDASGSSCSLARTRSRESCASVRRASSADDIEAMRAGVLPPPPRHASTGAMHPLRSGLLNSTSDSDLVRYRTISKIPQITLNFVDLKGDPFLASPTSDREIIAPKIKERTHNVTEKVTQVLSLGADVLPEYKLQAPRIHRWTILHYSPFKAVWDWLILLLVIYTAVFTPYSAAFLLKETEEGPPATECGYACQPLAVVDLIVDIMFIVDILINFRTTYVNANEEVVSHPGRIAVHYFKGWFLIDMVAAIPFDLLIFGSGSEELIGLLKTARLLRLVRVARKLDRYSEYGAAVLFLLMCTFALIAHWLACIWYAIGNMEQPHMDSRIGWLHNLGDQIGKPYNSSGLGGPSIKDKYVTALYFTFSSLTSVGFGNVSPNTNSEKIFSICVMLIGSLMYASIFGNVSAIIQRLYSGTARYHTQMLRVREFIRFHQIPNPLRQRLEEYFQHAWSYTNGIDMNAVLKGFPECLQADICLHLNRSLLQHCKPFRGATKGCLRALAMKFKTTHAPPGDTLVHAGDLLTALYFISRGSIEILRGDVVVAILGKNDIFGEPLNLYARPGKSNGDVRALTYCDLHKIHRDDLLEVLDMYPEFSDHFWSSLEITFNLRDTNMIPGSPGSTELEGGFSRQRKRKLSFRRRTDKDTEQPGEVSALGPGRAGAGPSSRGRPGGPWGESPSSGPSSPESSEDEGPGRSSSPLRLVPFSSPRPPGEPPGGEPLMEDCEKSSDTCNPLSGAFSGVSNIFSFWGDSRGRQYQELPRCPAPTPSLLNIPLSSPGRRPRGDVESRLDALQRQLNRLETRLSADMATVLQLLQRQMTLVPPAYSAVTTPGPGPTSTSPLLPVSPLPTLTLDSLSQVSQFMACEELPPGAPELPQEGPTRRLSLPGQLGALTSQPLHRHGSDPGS
row,SMILES,"hERG current change (%, negative = inhibition) at 10uM [%]"
1,COc1cc(CNc2ccc3[nH]c(=O)[nH]c3c2)ccc1OCc1ccccc1C,13.5
2,O=C(CN1CCN(Cc2ccccc2)CC1)NCc1ccc(Cl)cc1,-61.1
3,Cc1cccc(OCCCC(=O)NCc2ccco2)c1,2.27
4,CC(C)CC(OC(=O)c1cccs1)C(=O)NCc1ccco1 (stereo not shown),14.5
5,COc1ccc(C2C(=O)N(C3CCCCCC3)CC(=O)N2Cc2ccccc2)cc1OC (stereo not shown),-32.3
6,COc1ccc2nc(NC(=O)c3cccc(N4C(=O)CCC4=O)c3)sc2c1,-3.19
7,CC(C)(C)Cc1nnc(NC(=O)Cc2ccc([N+](=O)[O-])cc2)s1,-7.2
8,CC1=C(C(=O)OC(C)C)C(C)C(C(=O)OC(C)C)=C(C)N1,-16.9
9,COc1ccc(C2CCCN2C(=S)Nc2cccc(Cl)c2)cc1OC (stereo not shown),-23.2
10,O=C(CSc1nc(O)cc(=O)n1-c1ccccc1)Nc1ccc(Br)cn1,-2.56
11,CC(C)CN1C(Nc2ccccc2)=NC[C@@H]1C,13.3
12,Cc1nc2nc(C)c(CCC(=O)NC3CCCCC3)c(C)n2n1,14.7
13,CN1COc2ccc3ccccc3c2C1,5.28
14,CN(C)CCC(=O)c1cccc(Br)c1.Cl,14.8
15,CCOC(=O)c1csc(NC(=O)C(C)(C)C)n1,-4.47
16,CC1Cc2ccccc2N1S(=O)(=O)c1c(N)n(C)c(=O)n(C)c1=O (stereo not shown),7.93
17,C=CCOC(=O)C1=C(C)Nc2nnnn2C1c1cc(OC)ccc1OC (stereo not shown),-5.77
18,Nc1c2c(nc3ccn(-c4ccccc4)c(=O)c13)CCCCC2,-58.8
19,Cc1ccc(-c2cc(C(=O)NCc3cccnc3)no2)cc1,3.78
20,CN1CC(=O)Nc2ccccc2C1=O,26.3

row,SMILES,"hERG current change (%, negative = inhibition) at 10uM [%]"
1,COc1ccc(CCNC(=O)CCOc2cc(C)ccc2C)cc1OC,-1.05
2,COc1ccc(CN2CCNCC2)cc1.Cl,21.6
3,CC(=O)/C=C/c1ccc(C)o1,19.6
4,O=C(CSc1nc(-c2ccccc2)nc2ccc(F)cc12)Nc1cccc(C(=O)O)c1,2.54
5,O=C(NCc1ccccc1)N1CCOc2ccccc21,16.9
6,O=C1CC(C(=O)Nc2ccc(Cl)cc2)S/C(=N\N=C\c2ccco2)N1 (stereo not shown),10.4
7,CCOC(=O)C1C2C=CC3(CN(C4CCCC4)C(=O)C13)O2 (stereo not shown),17.3
8,CCN(CC)c1ccc(S(=O)(=O)N2CCOCC2)cc1NC(=O)c1cc(=O)c2ccccc2o1,-2.32
9,CN1C(c2ccccc2)CCOS1(=O)=O (stereo not shown),7.49
10,CCOc1ccc(N2CC(C(=O)NCCN3C(=O)S/C(=C\c4ccc(OC)c(OC)c4)C3=O)CC2=O)cc1 (stereo not shown),-21.3
11,Cc1c(Cl)cccc1NC(=O)CN1CCC(NC(=O)C2CCCCC2)CC1,-0.0286
12,O=S(=O)(c1ccc(Oc2ncnc3scc(-c4ccccc4)c23)cc1)N1CCOCC1,-0.503
13,CSc1nc2ccc(Cl)cc2[nH]1,-1.63
14,Cc1cc(NC(=O)CCC(=O)N(CC(=O)NC2CCCC2)c2ccc(F)c(Cl)c2)no1,-10.6
15,Cc1ccc(NC(=O)C2CCCN2C(=O)Oc2ccccc2)cc1 (stereo not shown),-5.96
16,CC(=O)c1ccc(NC(=O)c2ccc3snnc3c2)cc1,0.0655
17,Cc1onc(-c2ccccc2)c1C(=O)Nc1ccc2c(C)cc(=O)oc2c1,-1.34
18,O=C(NCc1ccccc1)c1ccc2c(c1)S(=O)(=O)c1cc(Cl)ccc1C2=O,-7.5
19,CSc1nc(C)cc(SC(C(C)=O)C(=O)Nc2ccccc2)n1 (stereo not shown),17.6
20,COCCN(C(=O)c1ccccc1)c1nnc(-c2cccnc2)s1,-4.56

row,SMILES,"hERG current change (%, negative = inhibition) at 10uM [%]"
1,N#Cc1c(N)c(C(=O)c2ccccc2)n2c1CCCC2,-7.25
2,CC1=NN(c2ccccc2)C(=O)C1,31.8
3,Cc1cccc(C)c1NC(=O)C1(N(Cc2ccco2)C(=O)Cn2nnnc2N)CCCCC1,14.9
4,COc1ccc(N2CCC(CNC(=O)Nc3ccccc3)C2)cc1 (stereo not shown),-9.13
5,O=C1CC(c2ccccc2)Cc2nc(NC3CC3)ncc21 (stereo not shown),-7.97
6,COc1ccccc1CNC(=O)c1oc2ccc(S(=O)(=O)N3CCOCC3)cc2c1C,-23.8
7,COc1cccc(CN2CC(C(=O)N3CCN(C(C)C)CC3)CCC2=O)c1 (stereo not shown),2.95
8,C=CCSc1nnc(CCCCCN2C(=O)c3cccc4cccc(c34)C2=O)o1,-17.2
9,c1ccc(Cn2cc(-c3cccnc3)cn2)cc1,-1.33
10,CC(=O)C(C)n1c(CN2CCN(C(=O)c3ccco3)CC2)nc2c1c(=O)n(C)c(=O)n2C (stereo not shown),15.6
11,O=C(O)C(=O)O.O=[N+]([O-])c1ccccc1CNCCc1c[nH]c2ccccc12,-22
12,N#Cc1cncc(-c2ccc3c(c2)OCCOCCOCCOCCOCCO3)n1,-86.9
13,COc1cc(NS(=O)(=O)c2ccc(NC(=S)NC(=O)c3sc4cc(F)ccc4c3Cl)cc2)nc(OC)n1,11.4
14,Cn1c(-c2ccc(F)cc2)cnc1NCc1cccc([N+](=O)[O-])c1,-70.9
15,CCN1CCN(c2ccc(S(=O)(=O)N3CCCCC3)cc2NC(=O)c2cccc(C(F)(F)F)c2)CC1,-46.7
16,O=C(CS(=O)(=O)c1ccc(Cl)cc1)NCc1ccccc1,9.73
17,COc1cccc(C(=O)N(Cc2cc3cc(C)ccc3[nH]c2=O)CC2CCCO2)c1 (stereo not shown),-17.4
18,COc1cccc(C(=O)O[C@H]2[C@H](C)NS(=O)(=O)[C@H]3C[C@@H]4C=C[C@]23O4)c1,19.7
